# Results published in the supplement of paper PMC8728848.
# The other results are listed elsewhere or left out.
# B1: HFR-1 (Triticum aestivum) (protein)
# chain: MSPQSFTLETTTTTPAAKGSDPSYFQSAPACHEMIQHKELLLHLYAYQNVQKTPDANQAVIVESKRPECFGILAANDWTVYDGPAHNANLVAHAQGLHLGASMAKENWFICFNMVFVNQRFTGSSFKVMGDFQGTAHNGEWAIVGGTGEFAYAQGVIAFKKTQQSERNARMELHVRAMCLSFLRPLLSLGDGSAVAKIGPWGKMSGELLDIPSTPQRLERITIRHGVVIDSLAFSFIDKAGEPYNVGPWGGRRGDNKDTIELAPSEIVTEVSGTVGIFAEDNVEYNAIASLTITTNHRPYGPFGETQSTPFSVPVQDNNNIVGFFACAGKYVEALGVYVRSPVST
# Key:
# Test in all cases: glycan array binding signal (z-score within array); higher = stronger binding
# Conditions in all cases: glycan notation: IUPAC condensed, linker removed
# Fuc(a1-2)Gal = target: Fuc(a1-2)Gal
# Procedure, shortened: (§1)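 From the Consortium for Functional Glycomics database, 3228 arrays were curated, keeping only those whose protein sequence was available. Binding is given as a within-array Z-score averaged across arrays sharing a protein sequence and across linkers. Negative Z-scores can be read as non-binding.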
# Fuc(a1-2)Gal(b1-3)GalNAc = target: Fuc(a1-2)Gal(b1-3)GalNAc
# Procedure, shortened: as §1
# [1] = target: Fuc(a1-2)Gal(b1-3)GalNAc(b1-3)Gal
# Procedure, shortened: as §1
# [2] = target: Fuc(a1-2)Gal(b1-3)GalNAc(b1-3)Gal(a1-4)Gal(b1-4)Glc
# Procedure, shortened: as §1
# [3] = target: Fuc(a1-2)Gal(b1-3)GalNAc(b1-4)[Neu5Ac(a2-3)]Gal(b1-4)Glc
# Procedure, shortened: as §1
# Fuc(a1-2)Gal(b1-3)GlcNAc = target: Fuc(a1-2)Gal(b1-3)GlcNAc
# Procedure, shortened: as §1
# [4] = target: Fuc(a1-2)Gal(b1-3)GlcNAc(b1-3)Gal(b1-4)Glc
# Procedure, shortened: as §1
# [5] = target: Fuc(a1-2)Gal(b1-3)[Fuc(a1-4)]GlcNAc
# Procedure, shortened: as §1
# Fuc(a1-2)Gal(b1-4)Glc = target: Fuc(a1-2)Gal(b1-4)Glc
# Procedure, shortened: as §1
# Fuc(a1-2)Gal(b1-4)Glc6S = target: Fuc(a1-2)Gal(b1-4)Glc6S
# Procedure, shortened: as §1
# Fuc(a1-2)Gal(b1-4)GlcNAc = target: Fuc(a1-2)Gal(b1-4)GlcNAc
# Procedure, shortened: as §1
# [6] = target: Fuc(a1-2)Gal(b1-4)GlcNAc(b1-3)Gal(b1-4)GlcNAc
# Procedure, shortened: as §1
# [7] = target: Fuc(a1-2)Gal(b1-4)GlcNAc(b1-3)Gal(b1-4)GlcNAc(b1-3)Gal(b1-4)GlcNAc
# Procedure, shortened: as §1
# [8] = target: Fuc(a1-2)Gal(b1-4)GlcNAc6S
# Procedure, shortened: as §1
# [9] = target: Fuc(a1-2)Gal(b1-4)[Fuc(a1-3)]GlcNAc
# Procedure, shortened: as §1
# [10] = target: Fuc(a1-2)Gal(b1-4)[Fuc(a1-3)]GlcNAc(b1-3)Gal(b1-4)[Fuc(a1-3)]GlcNAc
# Procedure, shortened: as §1
# [11] = target: Fuc(a1-2)Gal(b1-4)[Fuc(a1-3)]GlcNAc(b1-3)Gal(b1-4)[Fuc(a1-3)]GlcNAc(b1-3)Gal(b1-4)[Fuc(a1-3)]GlcNAc
# Procedure, shortened: as §1
# Fuc(a1-2)Gal6S(b1-4)Glc = target: Fuc(a1-2)Gal6S(b1-4)Glc
# Procedure, shortened: as §1
# [12] = target: Fuc(a1-2)Gal6S(b1-4)Glc6S
# Procedure, shortened: as §1
# [13] = target: Fuc(a1-2)Gal6S(b1-4)GlcNAc
# Procedure, shortened: as §1
# Fuc(a1-2)[Gal(a1-3)]Gal = target: Fuc(a1-2)[Gal(a1-3)]Gal
# Procedure, shortened: as §1
# [14] = target: Fuc(a1-2)[Gal(a1-3)]Gal(b1-3)GlcNAc
# Procedure, shortened: as §1
# [15] = target: Fuc(a1-2)[Gal(a1-3)]Gal(b1-4)Glc
# Procedure, shortened: as §1
# [16] = target: Fuc(a1-2)[Gal(a1-3)]Gal(b1-4)GlcNAc
# Procedure, shortened: as §1
# [17] = target: Fuc(a1-2)[Gal(a1-3)]Gal(b1-4)[Fuc(a1-3)]GlcNAc
# Procedure, shortened: as §1
# [18] = target: Fuc(a1-2)[Gal(a1-4)]Gal(b1-4)GlcNAc
# Procedure, shortened: as §1
# [19] = target: Fuc(a1-2)[GalNAc(a1-3)]Gal
# Procedure, shortened: as §1
# [20] = target: Fuc(a1-2)[GalNAc(a1-3)]Gal(b1-3)GlcNAc
# Procedure, shortened: as §1
# [21] = target: Fuc(a1-2)[GalNAc(a1-3)]Gal(b1-4)Glc
# Procedure, shortened: as §1
# [22] = target: Fuc(a1-2)[GalNAc(a1-3)]Gal(b1-4)GlcNAc
# Procedure, shortened: as §1
binder,measurement,setting,value
B1,glycan array binding signal (z-score),Fuc(a1-2)Gal,-0.129
same,glycan array binding signal (z-score),Fuc(a1-2)Gal(b1-3)GalNAc,-0.223
same,glycan array binding signal (z-score),[1],-0.186
same,glycan array binding signal (z-score),[2],-0.113
same,glycan array binding signal (z-score),[3],-0.215
same,glycan array binding signal (z-score),Fuc(a1-2)Gal(b1-3)GlcNAc,-0.211
same,glycan array binding signal (z-score),[4],0.059
same,glycan array binding signal (z-score),[5],-0.201
same,glycan array binding signal (z-score),Fuc(a1-2)Gal(b1-4)Glc,-0.132
same,glycan array binding signal (z-score),Fuc(a1-2)Gal(b1-4)Glc6S,-0.212
same,glycan array binding signal (z-score),Fuc(a1-2)Gal(b1-4)GlcNAc,-0.204
same,glycan array binding signal (z-score),[6],-0.206
same,glycan array binding signal (z-score),[7],-0.22
same,glycan array binding signal (z-score),[8],-0.21
same,glycan array binding signal (z-score),[9],-0.213
same,glycan array binding signal (z-score),[10],0.009
same,glycan array binding signal (z-score),[11],-0.203
same,glycan array binding signal (z-score),Fuc(a1-2)Gal6S(b1-4)Glc,-0.2
same,glycan array binding signal (z-score),[12],-0.128
same,glycan array binding signal (z-score),[13],-0.21
same,glycan array binding signal (z-score),Fuc(a1-2)[Gal(a1-3)]Gal,-0.171
same,glycan array binding signal (z-score),[14],-0.188
same,glycan array binding signal (z-score),[15],0.715
same,glycan array binding signal (z-score),[16],-0.178
same,glycan array binding signal (z-score),[17],-0.225
same,glycan array binding signal (z-score),[18],-0.222
same,glycan array binding signal (z-score),[19],-0.225
same,glycan array binding signal (z-score),[20],-0.105
same,glycan array binding signal (z-score),[21],-0.226
same,glycan array binding signal (z-score),[22],-0.225
